Measurements: PubChem BioAssay AID1468 (National Center for Advancing Translational Sciences (NCATS), 2008)
Among all 280,000 compounds or so, about 1,100 (0.39%) were called active. Inconclusive results, whose numbers are uncertain, are shown with a selection of clear calls. The call rests on the fitted dose curve; in most records, active means well fitted inhibition curve with a large enough effect; inconclusive means small, poorly fitted or top-dose-only effect, or effect the other way; inactive means flat fitted curve, though single readings scatter. No potency is given beside an inconclusive call; the fits are too rough.

biological target: Microtubule-associated protein tau (Homo sapiens) (UniProt P10636); assay: qHTS for Inhibitors of Tau Fibril Formation, Fluorescence Polarization; conditions: K18 P301L tau heparin fibrillization, Alexa594 FP, 6 h; series mostly up to 57.7 µM; activity, negative = inhibition: at the top concentration; further: nearly all actives have a fitted effect of over 55% in size
Sequence of UniProt P10636 (P10636 whole entry, looked up): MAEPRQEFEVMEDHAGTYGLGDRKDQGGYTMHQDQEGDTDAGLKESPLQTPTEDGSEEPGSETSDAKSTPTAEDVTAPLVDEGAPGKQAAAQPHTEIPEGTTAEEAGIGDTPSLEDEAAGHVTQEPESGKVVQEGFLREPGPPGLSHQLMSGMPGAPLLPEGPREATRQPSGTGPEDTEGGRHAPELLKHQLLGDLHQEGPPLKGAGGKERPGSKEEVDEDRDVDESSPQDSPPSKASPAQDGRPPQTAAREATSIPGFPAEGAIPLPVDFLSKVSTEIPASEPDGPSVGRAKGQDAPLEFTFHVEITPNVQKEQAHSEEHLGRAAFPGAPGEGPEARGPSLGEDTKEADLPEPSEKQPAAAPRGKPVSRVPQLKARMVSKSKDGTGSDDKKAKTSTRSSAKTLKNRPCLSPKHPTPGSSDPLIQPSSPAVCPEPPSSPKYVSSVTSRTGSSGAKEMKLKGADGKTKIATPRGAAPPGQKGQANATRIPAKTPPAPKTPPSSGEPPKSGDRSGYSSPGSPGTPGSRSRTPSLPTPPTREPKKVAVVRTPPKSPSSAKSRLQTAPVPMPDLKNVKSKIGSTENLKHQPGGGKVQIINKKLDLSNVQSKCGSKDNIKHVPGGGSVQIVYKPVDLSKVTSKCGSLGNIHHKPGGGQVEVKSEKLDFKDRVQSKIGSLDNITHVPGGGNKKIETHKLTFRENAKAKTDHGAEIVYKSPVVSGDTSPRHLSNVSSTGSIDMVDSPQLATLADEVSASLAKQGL
How it was run: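 Heparin (20 uM) drove fibril formation of recombinant tau K18 P301L, 15 uM unlabeled with 0.24 uM Alexa 594 label, for 6 hr at 37 C in 100 mM sodium acetate pH 7. Fluorescence polarization (555/632 nm) read 1 hr after 30 uM ThT.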
On the % scale 0 is the no-effect control and ±100 the full control effect; potency means the concentration at half of the fitted maximal effect; tags describe the fitted curve by direction and shape.

Compound | Potency | activity, negative = inhibition
COc1ccc(CCNC(=O)CSc2ccc(Br)cc2)cc1OC | inconclusive [inhibitor, full curve, poor fit] | 
CCN(CC)C(=O)c1cc([N+](=O)[O-])cc2c1-c1ccc([N+](=O)[O-])cc1C2=C(C#N)C#N | inconclusive [inhibitor, single point] | 
Cc1ccc(NC(=O)COC(=O)CCC(=O)c2ccc(C(C)(C)C)cc2)c([N+](=O)[O-])c1 | inconclusive [activator, partial curve] | 
O=C1NN(c2ccc(Cl)c(Cl)c2)C(=O)/C1=C/c1cccc(OC(=O)c2cccs2)c1 | inconclusive [inhibitor, single point] | 
CC(C)=CCN1CCN(Cc2cnc(N3CCOCC3)s2)CC1CCO (configuration not stated) |  | inactive: -2.67%
COc1ccc(CCNC(=O)CCNS(=O)(=O)c2ccc3c(c2)CCN3C(C)=O)cc1OC |  | inactive: 6.24%
O=C(N/N=C/c1cc2cc3c(cc2nc1Cl)OCCO3)c1ccccc1O |  | inactive: -8.08%
C=CCOc1ccc(C(=O)N(Cc2ccc(N(C)C)cc2)C2CCS(=O)(=O)C2)cc1 (configuration not stated) | inconclusive [inhibitor, single point] | 
CCOC(=O)CSC(=S)NC(=O)c1ccc(OC)cc1 |  | inactive: -7.91%
COc1ccccc1Nc1nc(-c2ccc(F)cc2)c2c(n1)-c1ccccc1OC2 | inconclusive [inhibitor, partial curve] | 
COc1cccc(-n2ccn(CC(=O)NCc3ccc(C)cc3)c(=O)c2=O)c1 | inconclusive [inhibitor, partial curve] | 
Cc1nc2cc(NC(=O)CSc3nc4c(C)cccc4cc3C#N)ccc2s1 | inconclusive [inhibitor, partial curve] | 
COc1ccc(-c2cc3nc(C)c(CCC(=O)NCc4ccccc4Cl)c(C)n3n2)c(OC)c1 | inconclusive [activator, single point] | 
COc1ccc(C)cc1NC(=O)Cn1c(=O)oc2cc(S(=O)(=O)N3CCCCC3)ccc21 | inconclusive [inhibitor, partial curve] | 
Cc1ccc(Nc2ccc3cc(S(=O)(=O)N4CCCCC4)ccc3n2)cc1F | inconclusive [inhibitor, partial curve] | 
COc1ccc(N2C(=O)CCC(C(=O)Nc3cccc(C)n3)C2c2ccc(OC)c(OC)c2)cc1 (configuration not stated) |  | inactive: -5.76%
CCOC(=O)c1ccc(NC(=O)CSc2nc(-c3ccc(OC)cc3)cc(C(F)(F)F)c2C#N)cc1 | inconclusive [inhibitor, single point] | 
CCN(CC)S(=O)(=O)c1cccc(C(=O)OCC(=O)Nc2ccc3c(c2)c2ccccc2n3CC)c1 | inconclusive [activator, full curve, poor fit] | 
CCc1cccc2nc3c(c([Si](CC)(CC)CC)c12)Cn1c-3cccc1=O |  | inactive: -13.5%
CCOc1ccc(NC(=O)NCCN2CCN(c3cccc(C)c3C)CC2)cc1 | inconclusive [activator, partial curve, poor fit] | 
COC(CNC(=O)CCc1c(C)nc2c(-c3ccc(F)cc3)c(C)nn2c1C)OC |  | inactive: 8.07%
CC(=O)c1ccc(NC(=O)c2cn(-c3ccccc3)nc2-c2ccc(Br)cc2)cc1 | inconclusive [inhibitor, partial curve] | 
COCCNc1nc(-c2ccc(OC)cc2)c(-c2ccc(OC)cc2)s1 |  | inactive: 4.46%

Compound | Potency | activity, negative = inhibition
C(=N\Nc1nc2ccccc2[nH]1)/c1cccc2cccnc12 |  | inactive: 7.76%
O=C(Nc1cccc(S(=O)(=O)N2CCOCC2)c1)c1cn(-c2ccccc2)nc1-c1ccccc1 | active: 25.1 µM | 
[O-]/[N+](=C\c1ccncc1)c1ccc(Br)cc1 | inconclusive [inhibitor, partial curve] | 
COc1ccc(/C=C/C(=O)NCC(c2ccc(F)cc2)N2CCOCC2)cc1OC (configuration not stated) |  | inactive: -4.57%
O=C(COC(=O)/C=C/c1cccs1)Nc1nc(-c2ccccc2)cs1 | inconclusive [inhibitor, full curve, poor fit] | 
O=C(Cn1nc(-c2ccccc2)c2c(c1=O)CCCC2)Nc1ccc(F)c(Cl)c1 | inconclusive [inhibitor, partial curve] | 
COc1c(O)c(O)cc2c1oc1c3cc(C)ccc3oc(=O)c21 | inconclusive [inhibitor, partial curve] | 
O=C(CCCc1ccc(-c2ccccc2F)cc1)Nc1ccc(O)cc1 | inconclusive [activator, partial curve, poor fit] | 
Oc1ccc(N=Nc2ccc3c(c2)OCO3)c2ccccc12 | inconclusive [activator, full curve, poor fit] | 
Cc1ccccc1NS(=O)(=O)c1ccc2[nH]cc(C(=O)NC3CCCCC3)c(=O)c2c1 | active: 28.2 µM | 
COc1cccc(-c2noc(COc3ccc(C(C)(C)C)cc3)n2)c1 |  | inactive: -19.4%
COc1ccc2c(CC(=O)Nc3ccccc3N3CCOCC3)coc2c1 |  | inactive: 9.9%
COc1ccc(NC(=O)c2oc3ccccc3c2NC(=O)Cc2coc3cc(C)ccc23)cc1 | inconclusive [inhibitor, partial curve] | 
CCOC(=O)c1c(C)[nH]c(C(=O)OCC(=O)Nc2ccc(OC)c(Cl)c2)c1C | inconclusive [inhibitor, partial curve, poor fit] | 
COc1cc(/C=C(/C#N)C(=O)Nc2ccccc2)ccc1OCc1ccc(C(=O)O)cc1 |  | inactive: 2.01%
Cc1ccc(NC(=O)Cn2cc(S(=O)(=O)Cc3cccc(Cl)c3)c3ccccc32)cc1C | inconclusive [inhibitor, partial curve] | 
CC1/C=C/C=C/C=C/C=C/C=C/C=C/C=C/C(OC2OC(C)C(O)C(N)C2O)CC2O[C@@](O)(CC(O)CC(O)C(O)CCC(O)CC(O)CC(=O)OC(C)[C@H](C)C1O)CC(O)C2C(=O)O (some centres not stated) | active: 3.98 µM | 
COc1ccc2oc(-c3ccc(C)c(NC(=O)c4ccc5c(c4)OCCO5)c3)nc2c1 |  | inactive: -10.9%
CC(C)CN(CCCNC(=O)c1cc(-c2cccs2)nc2ccccc12)CC(C)C | inconclusive [inhibitor, partial curve] | 
Cc1cccc(C)c1NC(=O)Cn1nnc(C(=O)Nc2c(C)cccc2C)c1N | inconclusive [inhibitor, single point] | 
O=C(CCC1N=C2c3ccccc3N=C(SCc3cccc(F)c3)N2C1=O)NCCc1ccccc1 (configuration not stated) |  | inactive: -0.429%
N#CC1=C(C2CC2)CC(c2ccccc2)C(C#N)=C1N (configuration not stated) | inconclusive [inhibitor, single point] | 
COc1ccc(NC(=O)CSc2nc(O)cc(=O)[nH]2)c(OC)c1 |  | inactive: -8.5%

Compound | Potency | activity, negative = inhibition
O=C(OCc1cc(=O)n2nc(-c3cccs3)sc2n1)c1ccccc1 | inconclusive [inhibitor, single point] | 
CCOc1ccc(NC(=O)c2c(NCc3ccc(C)o3)sc3c2CCCCC3)cc1 | inconclusive [inhibitor, single point] | 
Nc1ncc2c(n1)-c1cc(Cl)ccc1SC2 | inconclusive [inhibitor, partial curve] | 
CCCCSc1nnc(-c2ccc(C)cc2)c2ccccc12 |  | inactive: -4.15%
COc1ccc(Cl)cc1NC(=O)C(C)OC(=O)c1ccc(NS(=O)(=O)c2ccc3[nH]c(=O)[nH]c3c2)cc1 (configuration not stated) | inconclusive [inhibitor, partial curve] | 
O=C(/C=C/c1ccccc1)Oc1coc(CSc2ncccn2)cc1=O | inconclusive [inhibitor, single point] | 
Cc1ccc(Cl)cc1N1CCN(C(=O)C2CCN(S(=O)(=O)Cc3ccccc3)CC2)CC1 |  | inactive: -14.1%
CC(=O)OCCCNc1cc(SCc2ccco2)c2nonc2c1[N+](=O)[O-] | inconclusive [inhibitor, full curve, poor fit] | 
Cc1ccc(-c2ccc(=O)n(CC(=O)NCCc3ccc(Cl)cc3)n2)cc1 |  | inactive: 9.64%
Cc1ccc(N=Nc2ccc(O)c(/C=N\NC(=O)c3ccc(N)cc3)c2)cc1C | inconclusive [activator, partial curve, poor fit] | 
CCNC(=S)N(CCc1c(C)[nH]c2ccc(Cl)cc12)Cc1ccco1 | inconclusive [activator, full curve] | 
Nc1n[nH]c(N)c1N=Nc1ccc(Cl)cc1 |  | inactive: 16.6%
CCOC(=O)c1c(C)[nH]c(C)c1C(=O)COC(=O)/C=C/c1ccc(Cl)cc1 | inconclusive [inhibitor, single point] | 
COc1ccc(NC(=O)c2c(NCc3cccs3)sc3c2CCCC3)c(OC)c1 |  | inactive: 0.537%
COc1ccccc1N1CCN(C(=O)C(=O)N/N=C/c2cccc(O)c2)CC1 | inconclusive [inhibitor, full curve, poor fit] | 
Cc1ccc(C(=O)c2c(NC(=O)c3ccccc3)sc(C)c2C)cc1 | inconclusive [inhibitor, single point] | 
Cc1cc(SCC(=O)OCC(=O)c2c(N)n(C)c(=O)n(C)c2=O)c(C)cc1Br | inconclusive [inhibitor, partial curve, poor fit] | 
COc1ccc(/C=C/c2cc(OC)c(OC)cc2CC[N+](C)(C)C)cc1 |  | inactive: -2.99%
N#Cc1ccccc1OC[C@H](O)CNCCNC(=O)Nc1ccccc1 |  | inactive: -3.92%
Cc1c(Cl)cccc1NC(=O)CSc1nc(=O)[nH]c2c1CCC2 |  | inactive: -6.88%
O=S(=O)(c1cccc(Cl)c1)n1c(/C=C/c2ccccc2Cl)nc2ccccc21 | inconclusive [inhibitor, partial curve, poor fit] | 
